Measured values published in article PMC4336329 (PLoS ONE, 2015).
Among all 310,000 compounds or so, about 14,000 (4.5%) showed an effect of 50% or more. Effects have a minus sign here. The list shows a part of the results.

Each molecule was assayed against human ether-à-go-go-related gene (hERG) potassium channel (human, UniProt Q12809) (assay: primary screen, population patch clamp on CHO cells stably expressing hERG).
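Further: peak tail current of the secondary pulse compared with the same well before compound.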

human ether-à-go-go-related gene (hERG) potassium channel, sequence (Q12809 whole entry, looked up): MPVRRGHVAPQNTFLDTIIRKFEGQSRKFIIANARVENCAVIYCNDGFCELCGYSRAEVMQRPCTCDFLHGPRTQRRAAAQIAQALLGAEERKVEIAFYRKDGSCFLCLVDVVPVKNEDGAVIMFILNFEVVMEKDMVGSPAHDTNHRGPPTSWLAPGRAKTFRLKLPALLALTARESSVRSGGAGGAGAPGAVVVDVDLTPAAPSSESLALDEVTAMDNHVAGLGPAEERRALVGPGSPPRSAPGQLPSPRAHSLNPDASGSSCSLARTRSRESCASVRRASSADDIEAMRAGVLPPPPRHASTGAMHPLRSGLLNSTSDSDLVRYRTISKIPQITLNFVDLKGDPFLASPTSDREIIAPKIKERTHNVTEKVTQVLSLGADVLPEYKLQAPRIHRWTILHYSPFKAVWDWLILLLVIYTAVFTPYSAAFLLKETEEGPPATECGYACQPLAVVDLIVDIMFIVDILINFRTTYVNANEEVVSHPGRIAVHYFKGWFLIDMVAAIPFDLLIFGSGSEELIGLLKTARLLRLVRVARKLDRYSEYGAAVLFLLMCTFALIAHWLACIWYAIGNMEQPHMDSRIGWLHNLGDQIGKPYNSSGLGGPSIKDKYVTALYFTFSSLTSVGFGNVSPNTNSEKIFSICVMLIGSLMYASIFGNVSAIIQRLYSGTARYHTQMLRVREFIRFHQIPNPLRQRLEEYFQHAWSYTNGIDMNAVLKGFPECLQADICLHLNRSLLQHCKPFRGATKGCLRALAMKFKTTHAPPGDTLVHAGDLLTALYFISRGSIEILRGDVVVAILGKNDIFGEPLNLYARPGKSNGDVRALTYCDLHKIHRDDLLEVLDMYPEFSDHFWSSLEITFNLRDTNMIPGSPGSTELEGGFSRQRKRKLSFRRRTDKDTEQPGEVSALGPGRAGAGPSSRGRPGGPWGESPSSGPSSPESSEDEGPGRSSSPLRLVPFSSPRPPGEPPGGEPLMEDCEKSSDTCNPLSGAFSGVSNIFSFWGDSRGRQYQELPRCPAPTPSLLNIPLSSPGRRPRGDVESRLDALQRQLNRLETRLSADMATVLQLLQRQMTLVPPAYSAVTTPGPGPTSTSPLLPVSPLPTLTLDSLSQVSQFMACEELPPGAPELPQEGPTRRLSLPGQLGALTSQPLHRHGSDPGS

Structure (SMILES) | hERG current change (%, negative = inhibition) at 10uM
CCOc1ccc(S(=O)(=O)N2CCN(CN3C(=O)CC4(CCCC4)C3=O)CC2)cc1 | -8.79%
CCCC(=O)NC(c1ccccc1)c1ccc2cccnc2c1O (stereo not drawn) | -15.3%
O=C(O)c1cc(Nc2nc(N3CCOCC3)nc(N3CCOCC3)n2)ccc1Cl | 4.39%
Cc1ccc(/C(O)=C2\C(=O)C(=O)N(C)C2c2cccc([N+](=O)[O-])c2)cc1 (stereo not drawn) | 16.4%
COc1ccc(S(=O)(=O)N2CCC(C(=O)NCc3ccccn3)CC2)cc1C | -2.08%
O=C(CN(Cc1ccc(Cl)c(Cl)c1)S(=O)(=O)c1ccccc1)N/N=C\c1ccc2c(c1)OCO2 | -7.64%
Cc1ccc(S(=O)(=O)CCC(=O)Nc2nc3c(s2)CCCC3)cc1 | -1.29%
CC(=O)Nc1ccc(NC(=O)c2cc([N+](=O)[O-])cc([N+](=O)[O-])c2)cc1 | 22.5%
Nc1nnc(CC2=CCCCC2)s1 | 13.7%
Cc1ccc(NC(=O)C(C)SCc2nc3sc(C)c(C)c3c(=O)[nH]2)nc1 (stereo not drawn) | -10.7%
COc1ccc(C2C(C#N)=C(N)Oc3cccc(O)c32)cc1 (stereo not drawn) | 13.1%
CC(C)C(C)NC(=O)COc1ccc(S(=O)(=O)N2CCOCC2)cc1Cl (stereo not drawn) | 3.61%
CCN1C(=O)C(=C2C=C(C)OC(C)=C2)C(=O)N(CC)C1=S | 13.2%
Cc1cccn2c(=O)c(/C=C(\C#N)S(=O)(=O)c3ccccc3)c(N3CCN(c4ccccc4)CC3)nc12 | 9.12%
CCn1c(SCc2ccc(F)cc2)nnc1C1CCN(S(=O)(=O)c2ccc(OC)cc2)CC1 | -64.3%
O=C(NN1C(=O)c2ccc3c4c(ccc(c24)C1=O)CC3)c1ccc(Br)cc1 | 7.7%
CC(C)c1cc(C(=O)NCc2cccnc2)no1 | -11.1%
CCNC(=S)NN=C1c2ccccc2-c2ccccc21 | -21.6%
O=C1C2=C(C(c3ccccc3)=NCCN2)C(c2cccc([N+](=O)[O-])c2)N1c1ccccc1 (stereo not drawn) | -21.3%
COP(=S)(OC)SCN1C(=O)c2ccccc2C1=O | 3.77%
CC1CCCN(S(=O)(=O)c2cc3c4c(c2)CCN4C(=O)CC3)C1 (stereo not drawn) | -6.07%
CCOC(=O)N1CCC(n2c(SCC(=O)OCc3ccccc3)nc3ccsc3c2=O)CC1 | -31.9%
CCN(c1ccccc1)S(=O)(=O)c1ccc(OCc2c(C)noc2C)cc1 | -9.09%
O=C(CSc1nnc(-c2ccccc2F)o1)NC(=O)Cc1ccccc1 | 8.85%
COc1cc(CNn2cn[nH]c2=S)cc(Cl)c1OCc1ccccc1 | 9.54%
CC(=O)C1=C(C)NC(=O)NC1/C=C/c1ccccc1 (stereo not drawn) | 10.9%
CC(=O)N1CCN(Cc2nc3cc(NC(=O)C4CCCCC4)ccc3n2C)CC1 | -4.48%

Structure (SMILES) | hERG current change (%, negative = inhibition) at 10uM
CCCCn1c(N)c(C(=O)NCc2cccs2)c2nc3ccccc3nc21 | -5.67%
Cc1cccc(C(=O)OCC(=O)Nc2ccc(N3CCCCC3)cc2)c1O | 18.8%
O=C(CN1CCC(c2nc3ccccc3s2)CC1)N1CCCCC1 | -33.5%
COc1cc(C2C(C(=O)/C=C/c3ccccc3)=C(O)C(=O)N2c2ccccn2)ccc1O (stereo not drawn) | 27.3%
CCSc1nnc(NC(=O)CCCOc2ccc(C)cc2)s1 | 50.2%
Cc1cc(C(=O)NNc2ccc(F)cc2F)no1 | 20.3%
COc1cc2c(cc1OC)-c1cc(Nc3ccc(F)cc3)nc(=O)n1CC2 | -9.18%
Cc1ccc(C(c2nnnn2Cc2cccs2)N2CCN(C(=O)c3ccco3)CC2)cc1 (stereo not drawn) | -62.5%
Fc1ccc(Oc2nc(-c3ccccn3)nc3ccccc23)cc1 | -20%
COc1ccc(C2C(=O)N(C3CCCCC3)CC(=O)N2Cc2ccc3c(c2)OCO3)cc1 (stereo not drawn) | -31.6%
COc1ccc2nc(SCC(=O)NCc3ccc(OC)c(OC)c3)[nH]c2c1 | 23.3%
COCCNC(=O)C(c1ccc(OC)cc1)N(C(=O)Cn1nnc2ccccc21)c1cccnc1 (stereo not drawn) | 16.9%
N#CCC(=O)Nc1ccc(C(=O)NCc2ccccn2)cc1 | 19.3%
Cc1ccc(Nc2nc(CSc3nnc(-c4cccs4)o3)cs2)cc1 | 10.4%
Cc1oc(/N=C/c2ccc3c(c2)OCO3)c(C#N)c1C | -2.31%
CCSc1nc(C)c(CCOc2cccc(C)c2)c(=O)[nH]1 | 8.09%
COC(=O)C(NC(=O)CCc1c(C)nc2c(c(C)nn2-c2ccccc2)c1C)C(C)C (stereo not drawn) | -0.592%
O=C(CNC(=O)c1cccs1)c1ccc(F)cc1 | 15.9%
COc1ccccc1C(=O)NCCn1cc(SCC(=O)Nc2nnc(C)s2)c2ccccc21 | -18%
COc1cc(NC(=S)N2CCN(S(=O)(=O)c3ccc(C)cc3)CC2)cc(OC)c1 | -4.7%
COCCNc1oc(/C=C/c2ccc(F)cc2)nc1S(=O)(=O)c1ccccc1 | 1.81%
COCCN(CCOC)S(=O)(=O)c1ccc(C(=O)Nc2nnc(CSC)o2)cc1 | 12.3%
COc1nnc(-c2ccc(C)c(S(N)(=O)=O)c2)c2ccccc12 | 4.8%
COCCN(C(=O)CSc1nnc(-c2ccccc2F)o1)c1c(N)n(CC(C)C)c(=O)[nH]c1=O | 2.88%
CCOc1ccc2nc(NC(=O)C3CCCN(S(=O)(=O)c4c(C)noc4C)C3)sc2c1 (stereo not drawn) | 6.82%
CCOC(=O)c1sc2nc(C)nc(SCC(=O)N(C)C3CCS(=O)(=O)C3)c2c1C (stereo not drawn) | -26.1%
COc1cc(C(CC(=O)N2CCOCC2)c2c(OC)cc(OC)c3ccc(=O)oc23)cc(OC)c1OC (stereo not drawn) | 2.51%
